# Laboratory results published in the antibiotic and cytotoxicity screens of Wong et al. (2023).
# The list shows a part of the results.
# How the values were obtained:
# HSkMC = human skeletal muscle cells; experiment: cytotoxicity call (relative viability < 0.9); conditions: 10 µM
# HepG2 = experiment: cytotoxicity call (relative viability < 0.9); conditions: 10 µM
# S. aureus RN4220 = experiment: growth inhibition call (relative growth <= 0.2); conditions: 50 µM
SMILES,cytotoxicity call (HSkMC),cytotoxicity call (HepG2),growth inhibition call (S. aureus RN4220)
O=S(=O)([O-])c1cc(O)c2c(N=Nc3ccc(Nc4ccccc4)c4c(S(=O)(=O)[O-])cccc34)cc(S(=O)(=O)[O-])cc2c1.[Na+].[Na+].[Na+],inactive,inactive,inactive
COc1ccc(S(=O)(=O)Nc2ccc3c(c2)C(=O)N([C@H](C)CO)C[C@@H](C)[C@H](CN(C)S(C)(=O)=O)O3)cc1,inactive,inactive,inactive
Cc1ccccc1S(=O)(=O)N1C[C@H](O)COC[C@H]2O[C@@H](CC(=O)N3CCC(Cc4ccccc4)CC3)CC[C@@H]21,inactive,active,inactive
C[C@@H]1CCCCO[C@@H](CN(C)C(=O)Nc2ccc3c(c2)OCO3)[C@@H](C)CN([C@@H](C)CO)C(=O)c2cc(NC(=O)Nc3ccccc3)ccc2O1,inactive,inactive,inactive
CC(C)(C)N1CC=C[C@@]23O[C@@H]4/C=C\CCCOC(=O)[C@@H]4[C@H]2C(=O)N(CCO)[C@@H]3C1=O,inactive,inactive,inactive
O=C(C[C@@H]1CC[C@H]2[C@@H](COC[C@@H](O)CN2S(=O)(=O)c2ccccc2F)O1)NCc1ccccc1Cl,inactive,inactive,inactive
Cc1ccc(S(=O)(=O)Nc2ccc3c(c2)C(=O)N([C@H](C)CO)C[C@H](C)[C@H](CN(C)CC2CCCCC2)OCCCC[C@@H](C)O3)cc1,inactive,inactive,inactive
C[C@@H]1CN([C@H](C)CO)C(=O)c2cc(C#CCN(C)C)cnc2O[C@@H]1CN(C)Cc1ccc(C(=O)O)cc1,inactive,inactive,inactive
C[C@H](CO)N1C[C@H](C)[C@H](CN(C)Cc2ccc(C(=O)Nc3ccccc3N)cc2)Oc2ccc(NS(C)(=O)=O)cc2CC1=O,inactive,inactive,inactive
C[C@@H]1CN([C@@H](C)CO)C(=O)Cc2cc(NC(=O)C3CC3)ccc2O[C@@H]1CN(C)Cc1ccc(C(=O)O)cc1,inactive,inactive,inactive
COc1ccc(NC(=O)Nc2ccc3c(c2)C(=O)N([C@@H](C)CO)C[C@@H](C)[C@H](CN(C)C(=O)Nc2c(C)noc2C)OCCCC[C@@H](C)O3)cc1,inactive,inactive,inactive
C[C@@H]1CCCCO[C@H](CN(C)CC2CCCCC2)[C@H](C)CN([C@@H](C)CO)C(=O)c2cc(NC(=O)CCCCCC(=O)Nc3ccccc3N)ccc2O1,inactive,inactive,inactive
Cc1ccc(S(=O)(=O)Nc2ccc3c(c2)C(=O)N([C@@H](C)CO)C[C@@H](C)[C@@H](CN(C)C(=O)Nc2ccc(F)cc2)OCCCC[C@H](C)O3)cc1,inactive,inactive,inactive
CC(C)NC(=O)N(C)C[C@@H]1Oc2c(NC(=O)C3CCCCC3)cccc2C(=O)N([C@@H](C)CO)C[C@H]1C,inactive,inactive,inactive
C[C@H]1CN([C@@H](C)CO)C(=O)c2cccc(NC(=O)NC3CCCCC3)c2O[C@H]1CN(C)S(=O)(=O)c1cn(C)cn1,inactive,inactive,inactive
C[C@@H]1CCCCO[C@H](CN(C)C(=O)c2ccncc2)[C@H](C)CN([C@@H](C)CO)C(=O)c2cc(NS(=O)(=O)c3cn(C)cn3)ccc2O1,inactive,inactive,inactive
C[C@H]1CN([C@@H](C)CO)C(=O)c2cc(NC(=O)CCN3CCOCC3)ccc2O[C@@H]1CN(C)C(=O)Nc1ccc(F)cc1,inactive,inactive,inactive
C[C@@H]1CN([C@@H](C)CO)C(=O)Cc2cc(NS(=O)(=O)c3ccccc3)ccc2O[C@H]1CN(C)S(C)(=O)=O,inactive,inactive,inactive
CC(=O)Oc1cc(OC(C)=O)c2c(c1)O[C@H](c1ccc(OC(C)=O)c(OC(C)=O)c1)[C@H](OC(C)=O)C2,inactive,inactive,inactive
CNC(=O)C[C@@H]1CC[C@@H]2[C@@H](COc3ccc(NC(=O)c4ccc(C(F)(F)F)cc4)cc3C(=O)N2C)O1,inactive,inactive,inactive
CCCN(C)C[C@@H]1OCCCC[C@@H](C)Oc2ccc(NS(=O)(=O)c3ccc(Cl)cc3)cc2C(=O)N([C@H](C)CO)C[C@@H]1C,inactive,inactive,inactive
COc1ccc(NC(=O)N(C)C[C@H]2OCCCC[C@@H](C)Oc3ccc(NC(=O)C4CCCCC4)cc3C(=O)N([C@@H](C)CO)C[C@@H]2C)cc1,inactive,inactive,inactive
Cc1noc(C)c1S(=O)(=O)Nc1ccc2c(c1)C(=O)N([C@H](C)CO)C[C@H](C)[C@@H](CN(C)Cc1ccncc1)O2,inactive,inactive,inactive
